According to patent US20240254223A1 (NOVIMMUNE, published 2024):

T1: high affinity trimeric IL-2R (IL-2Rα, IL-2Rβ and IL-2Rγ) on HEK-Blue IL-2 cells (UniProt P01589 22-272; P14784 27-551; P31785 23-369)
T1 sequence (looked up) 1: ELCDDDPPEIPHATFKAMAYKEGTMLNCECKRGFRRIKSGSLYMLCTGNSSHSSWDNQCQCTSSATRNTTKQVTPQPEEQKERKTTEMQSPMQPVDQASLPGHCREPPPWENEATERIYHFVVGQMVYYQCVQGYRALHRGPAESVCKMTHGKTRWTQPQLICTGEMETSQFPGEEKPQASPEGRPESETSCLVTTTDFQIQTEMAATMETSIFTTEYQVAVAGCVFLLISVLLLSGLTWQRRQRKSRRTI
T1 sequence (looked up) 2: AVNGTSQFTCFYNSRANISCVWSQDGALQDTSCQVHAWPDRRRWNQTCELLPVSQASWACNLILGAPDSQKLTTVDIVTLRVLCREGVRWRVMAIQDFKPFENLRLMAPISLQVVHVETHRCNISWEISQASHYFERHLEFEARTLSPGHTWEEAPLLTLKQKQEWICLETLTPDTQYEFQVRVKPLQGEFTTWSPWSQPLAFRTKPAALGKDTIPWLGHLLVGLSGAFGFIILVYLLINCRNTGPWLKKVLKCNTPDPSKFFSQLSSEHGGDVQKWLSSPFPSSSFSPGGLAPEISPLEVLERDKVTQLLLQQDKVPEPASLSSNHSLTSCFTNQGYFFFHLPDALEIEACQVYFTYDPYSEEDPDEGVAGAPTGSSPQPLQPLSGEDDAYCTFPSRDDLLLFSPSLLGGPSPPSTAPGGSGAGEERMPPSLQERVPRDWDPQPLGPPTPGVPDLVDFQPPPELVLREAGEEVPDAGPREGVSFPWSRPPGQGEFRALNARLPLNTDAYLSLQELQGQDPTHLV
T1 sequence (looked up) 3: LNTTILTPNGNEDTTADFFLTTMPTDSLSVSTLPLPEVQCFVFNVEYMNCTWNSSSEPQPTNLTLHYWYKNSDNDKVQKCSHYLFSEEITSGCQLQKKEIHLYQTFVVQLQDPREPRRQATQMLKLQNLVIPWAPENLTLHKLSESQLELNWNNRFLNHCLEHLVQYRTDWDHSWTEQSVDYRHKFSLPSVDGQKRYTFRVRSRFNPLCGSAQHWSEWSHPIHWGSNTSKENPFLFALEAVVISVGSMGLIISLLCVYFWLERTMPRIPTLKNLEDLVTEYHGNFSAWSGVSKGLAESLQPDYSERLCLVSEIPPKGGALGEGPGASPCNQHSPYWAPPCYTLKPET

T2: low-moderate affinity dimeric IL-2R (IL-2Rβ and IL-2Rγ) on HEK-Blue CD122/CD132 cells (UniProt P14784 27-551; P31785 23-369, limits assumed)
T2 sequence (looked up) 1: T1 sequence (looked up) 2
T2 sequence (looked up) 2: T1 sequence (looked up) 3

B1: pNOVI V2K K91_E6_IL-2Rα_1_238_CM1_IL-2_21_153_CM1 VKCK IL-2Rβ_1_239_CM1_VHCH (antibody, human IgG1, kappa)
light: ELCDDDPPEIPHATFKAMAYKEGTMLNCECKRGFRRIKSGSLYMLCTGNSSHSSWDNQCQCTSSATRNTTKQVTPQPEEQKERKTTEMQSPMQPVDQASLPGHCREPPPWENEATERIYHFVVGQMVYYQCVQGYRALHRGPAESVCKMTHGKTRWTQPQLICTGEMETSQFPGEEKPQASPEGRPESETSCLVTTTDFQIQTEMAATMETSIFTTEGGGGSVHMPLGFLGPGGGGS[about 150 residues left out]GGGGSVHMPLGFLGPGGSDIQMTQSPSSLSASVGDRVTITCNVDQVIANWLNWYQQKPGKAPKLLIYAASSLQSGVPSRFSGSGSGTDFTLTISSLQPEDFATYYCQQMHPRAPKQFGQGTKVEIKRTVAAPSVFIFPPSDEQLKSGTASVVCLLNNFYPREAKVQWKVDNALQSGNSQESVTEQDSKDSTYSLSSTLTLSKADYEKHKVYACEVTHQGLSSPVTKSFNRGEC
heavy: AVNGTSQFTCFYNSRANISCVWSQDGALQDTSCQVHAWPDRRRWNQTCELLPVSQASWACNLILGAPDSQKLTTVDIVTLRVLCREGVRWRVMAIQDFKPFENLRLMAPISLQVVHVETHRCNISWEISQASHYFERHLEFEARTLSPGHTWEEAPLLTLKQKQEWICLETLTPDTQYEFQVRVKPLQGEFTTWSPWSQPLAFRTKPAALGKDGGGGSVHMPLGFLGPGGS[about 120 residues left out][about 100 residues left out][human IgG1 Fc left out]
notes: masked K91 fusion, uncleaved; also called n651; construct No 651
B2: pNOVI V2K K33_E6_IL-2Rα_1_238_CM1_IL-2_21_153_CM1 VKCK IL-2Rβ_1_239_CM1_VHCH (antibody, human IgG1, kappa)
light: ELCDDDPPEIPHATFKAMAYKEGTMLNCECKRGFRRIKSGSLYMLCTGNSSHSSWDNQCQCTSSATRNTTKQVTPQPEEQKERKTTEMQSPMQPVDQASLPGHCREPPPWENEATERIYHFVVGQMVYYQCVQGYRALHRGPAESVCKMTHGKTRWTQPQLICTGEMETSQFPGEEKPQASPEGRPESETSCLVTTTDFQIQTEMAATMETSIFTTEGGGGSVHMPLGFLGPGGGGS[about 150 residues left out]GGGGSVHMPLGFLGPGGSDIQMTQSPSSLSASVGDRVTITCRASQSISSYLNWYQQKPGKAPKLLIYAASSLQSGVPSRFSGSGSGTDFTLTISSLQPEDFATYYCQQFHKRSPQKFGQGTKVEIKRTVAAPSVFIFPPSDEQLKSGTASVVCLLNNFYPREAKVQWKVDNALQSGNSQESVTEQDSKDSTYSLSSTLTLSKADYEKHKVYACEVTHQGLSSPVTKSFNRGEC
heavy: AVNGTSQFTCFYNSRANISCVWSQDGALQDTSCQVHAWPDRRRWNQTCELLPVSQASWACNLILGAPDSQKLTTVDIVTLRVLCREGVRWRVMAIQDFKPFENLRLMAPISLQVVHVETHRCNISWEISQASHYFERHLEFEARTLSPGHTWEEAPLLTLKQKQEWICLETLTPDTQYEFQVRVKPLQGEFTTWSPWSQPLAFRTKPAALGKDGGGGSVHMPLGFLGPGGS[about 120 residues left out][about 100 residues left out][human IgG1 Fc left out]
notes: masked K33 fusion, uncleaved; also called n830; construct No 830
B3: pNOVI V2K K91_M2_IL-2Rα_1_238_CM1_IL-2 F42A_21_153_CM1 VKCK IL-2Rβ_1_239_CM1_VHCH (antibody, human IgG1, kappa)
light: ELCDDDPPEIPHATFKAMAYKEGTMLNCECKRGFRRIKSGSLYMLCTGNSSHSSWDNQCQCTSSATRNTTKQVTPQPEEQKERKTTEMQSPMQPVDQASLPGHCREPPPWENEATERIYHFVVGQMVYYQCVQGYRALHRGPAESVCKMTHGKTRWTQPQLICTGEMETSQFPGEEKPQASPEGRPESETSCLVTTTDFQIQTEMAATMETSIFTTEGGGGSVHMPLGFLGPGGGGS[about 150 residues with changes left out]GGGGSVHMPLGFLGPGGSDIQMTQSPSSLSASVGDRVTITCNVDQVIANWLNWYQQKPGKAPKLLIYAASSLQSGVPSRFSGSGSGTDFTLTISSLQPEDFATYYCQQMHPRAPKQFGQGTKVEIKRTVAAPSVFIFPPSDEQLKSGTASVVCLLNNFYPREAKVQWKVDNALQSGNSQESVTEQDSKDSTYSLSSTLTLSKADYEKHKVYACEVTHQGLSSPVTKSFNRGEC
heavy: AVNGTSQFTCFYNSRANISCVWSQDGALQDTSCQVHAWPDRRRWNQTCELLPVSQASWACNLILGAPDSQKLTTVDIVTLRVLCREGVRWRVMAIQDFKPFENLRLMAPISLQVVHVETHRCNISWEISQASHYFERHLEFEARTLSPGHTWEEAPLLTLKQKQEWICLETLTPDTQYEFQVRVKPLQGEFTTWSPWSQPLAFRTKPAALGKDGGGGSVHMPLGFLGPGGS[about 120 residues left out][about 100 residues left out][human IgG1 Fc left out]
notes: masked K91 fusion with IL-2 F42A, uncleaved; also called n780; construct No 780

The binders below were run against T1, high affinity trimeric IL-2R (IL-2Rα, …) (assay: cell-based or functional assay).

EC50 before cleavage IL-2, HEK Blue IL-2 αβγ reporter assay [pM]	EC50 ratio (BC/AC), HEK Blue IL-2 αβγ reporter assay	Binder
290	18	B1
330	38	B2
640	34	B3

These binders were tested against T2, low-moderate affinity dimeric IL-2R … (assay: cell-based or functional assay).

EC50 before cleavage IL-2, HEK Blue IL-2 βγ reporter assay [pM]	EC50 ratio (BC/AC), HEK Blue IL-2 βγ reporter assay	Binder
240	24	B1
1740	147	B2
230	17	B3

These binders were tested against T3, CD47 at the surface of Peak cells (human, UniProt Q08722) (assay: flow cytometry, Peak cells, before cleavage).
T3 construct: whole, on cells; also called cell surface CD47

EC50 [pM]	Binder
68300	B1
41200	B3

These binders were tested against T4, His-tagged human CD47 (human, UniProt Q08722 fragment, limits assumed) (assay: BLI, His-CD47 on HIS1K sensor, antibody 15 µg/mL).
T4 construct: loaded on HIS1K biosensors at 2.5 µg/mL; also called target antigen; not shown: His tag

Binding before cleavage (BLI) [nm]	Binder
0.4	B1
0.6	B2
0.5	B3

These binders were tested against T3, CD47 at the surface of Peak cells (assay: flow cytometry, Peak cells; EC50 before / EC50 after cleavage).

Binding recovery (BC/AC)	Binder
95	B1
40	B3
